Measured values: PubChem BioAssay AID485344 (National Center for Advancing Translational Sciences (NCATS), 2010)
Among all 340,000 compounds or so, about 6,900 (2%) were called active. Cut-off read from the data, not from the text of the source: active = inhibition above about 30%; inactive = below that, where a call was filed. This is a selection; strong and weak results do not stand in their true shares. The source gives no active or inactive call for entries shown without one.

Molecular target: D(2) dopamine receptor (Homo sapiens) (UniProt P14416)
Chain of UniProt P14416 (P14416 whole entry, looked up): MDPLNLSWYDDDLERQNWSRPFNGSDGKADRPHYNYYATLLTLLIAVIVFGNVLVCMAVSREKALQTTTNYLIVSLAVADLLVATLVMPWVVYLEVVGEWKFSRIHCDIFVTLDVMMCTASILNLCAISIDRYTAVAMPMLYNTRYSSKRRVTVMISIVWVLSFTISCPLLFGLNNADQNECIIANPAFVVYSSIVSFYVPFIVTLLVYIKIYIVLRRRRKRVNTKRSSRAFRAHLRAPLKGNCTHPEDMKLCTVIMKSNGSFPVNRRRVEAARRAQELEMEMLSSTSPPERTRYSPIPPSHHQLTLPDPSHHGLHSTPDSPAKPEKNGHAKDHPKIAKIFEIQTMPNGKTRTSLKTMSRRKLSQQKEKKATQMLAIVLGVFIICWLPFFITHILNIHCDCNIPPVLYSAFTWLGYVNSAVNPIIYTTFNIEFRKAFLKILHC
Experiment: HTS Assay for Allosteric Antagonists of the Human D2 Dopamine Receptor: Primary Screen for Antagonists; note: 0% is about no effect
Conditions: HEK293 TREx D2 cells, calcium flux, dopamine EC80; at 10 µM; stronger effect = higher value
In short: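 Tetracycline-induced HEK293 T-REx cells expressing D2 force-coupled to calcium signalling were dye-loaded, exposed to compound for 180 s, then challenged with an EC80 of dopamine; calcium flux was followed kinetically for a further 180 s.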

Structure (SMILES)	inhibition
CC(=O)c1cc(-c2ccc(F)cc2)n(CC(=O)NCc2ccc(C)cc2)c1C	5.75%
Cc1cc(C)c(OCC(=O)Nc2cccc(-c3nc4ncccc4o3)c2)c(Br)c1	14.8%
CC1CCN(S(=O)(=O)c2ccc3nc(N4CCN(c5ccccc5)CC4)ccc3c2)CC1	2.81%
Oc1c(C(c2ccc(Cl)cc2)N2CCOCC2)sc2nc(-c3ccco3)nn12 (stereo unspecified)	9.64%
COc1cccc([C@H]2Nc3ccc(S(=O)(=O)Nc4cc(C)ccc4C)cc3[C@H]3C=CC[C@H]32)c1	-15.1%
COc1ccccc1OCC(=O)Nc1cc(-c2ccc(C)cc2)no1	6.31%
Fc1cccc(CSc2nc(NCCc3ccccc3)c3ccccc3n2)c1	-9.48%
COc1ccc(CCNC(=O)Cn2c(-c3cccs3)cc3cc(F)ccc32)cc1OC	-1.21%
COc1ccc(C2=C(N3CCN(c4cc(Cl)ccc4C)CC3)c3ccccc3C2=O)cc1	-2.97%
COc1ccc(NC(=O)c2oc3ccccc3c2NC(=O)c2cc(OC)c(OC)c(OC)c2)cc1	10.1%
COc1cccc(CNC(=O)c2ccc(CS(=O)c3ccccc3)o2)c1 (stereo unspecified)	-18.5%
COc1ccc(CCNC(=O)CN2C(=O)COc3ccccc32)cc1OC	-22.4%
Cc1cccc(Oc2nc3c(c(=O)n(C)c(=O)n3C)n2C)c1C	-4.28%
N#Cc1c(-c2ccccc2)cc(-c2ccccc2)nc1SCC(=O)Nc1ccc(Cl)cc1	7.86%
Cc1ccccc1-c1nn2c(=O)cc(CN3CCN(C(=O)c4ccccc4Br)CC3)nc2s1	-7.31%
CCOC(=O)N1CCN(C(=O)c2cnn(-c3cccc(F)c3)c2-n2cccc2)CC1	-0.753%
CCc1ccccc1NC(=O)C(CCSC)NS(=O)(=O)c1ccc2c(c1)oc(=O)n2C (stereo unspecified)	0.915%
COc1cc(Cl)c(C)cc1NC(=O)NC1COc2ccccc2C1 (stereo unspecified)	5.96%
CCCNC(=O)Cn1c(=O)cc(C)c2c(C)nn(-c3cccc(F)c3)c21	-5.06%
COc1cc2nc(SCc3ccc(F)cc3)n3nc(CCn4c(C)nc5ccccc54)nc3c2cc1OC	3.6%
COc1ccc(CNC(=S)Nc2ccc(F)c(Cl)c2)cc1	active: 68.2%
CCOc1ccc(S(=O)(=O)N(CC(=O)NCCSCc2ccccc2)c2ccccc2)cc1	-4.43%
CCOc1ccccc1NC(=O)N1CCN(Cc2cc(=O)n3nc(-c4ccc(C)cc4)sc3n2)CC1	-0.919%
C[C@@H]1CC2OC(=O)[C@@]3(C)C(=O)CC[C@@](C)(C23)[C@@]1(O)CCc1ccoc1 (stereo partly specified)	active: 30.1%

Structure (SMILES)	inhibition
COc1ccc(S(=O)(=O)N2CCCCCC2)cc1C(=O)N(C)Cc1ccc(Cl)cc1Cl	active: 46.9%
CCOC(=O)c1ccccc1NC(=O)CSc1ncc2c(n1)-c1ccccc1N(CC)S2(=O)=O	11.5%
Cc1nn(C)c2c1c(-c1ccccc1)cc(=O)n2CC(=O)NC(C)(C)C	16.4%
CCC(C)n1c(=N)c(S(=O)(=O)c2ccccc2)cc2c(=O)n3ccccc3nc21 (stereo unspecified)	13.5%
CCN(CC)S(=O)(=O)c1cccc(NC(=O)COC(=O)C2=COCCO2)c1	active: 30.5%
CCCOc1ccc(C(=O)NNC(=S)NC(=O)CC)cc1	active: 72.4%
CCC(=O)Nc1cccc(-c2cn3c(C)csc3n2)c1	0.519%
O=C(CCC1N=C2c3ccccc3N=C(SCc3cccc(Cl)c3)N2C1=O)NCc1cccs1 (stereo unspecified)	-13.7%
COc1cccc(C(=O)N(Cc2cccc(Cl)c2)Cc2ccco2)c1	1.43%
CC(C)(C)c1ccc(OCC(=O)Nc2c(C(=O)c3ccc(F)cc3)oc3ccccc23)cc1	0.458%
COc1cc(C(=O)NCCSc2c(-c3ccccc3)[nH]c3ccccc23)cc(OC)c1OC	3.15%
CSc1cccc(NC(=O)c2ccc3c(c2)c(C)c(C)n3Cc2ccc(F)cc2)c1	4.62%
CCc1ccc(S(=O)(=O)c2cn(C)c3cc(N4CCN(CC)CC4)c(F)cc3c2=O)cc1	2.12%
COc1ccc(CCCc2nnc(SCC(=O)Nc3ccc(C)c(C)c3)o2)cc1	2.63%
Cc1cc(C)c2c(CC(=O)Nc3nnc(CC(C)C)s3)coc2c1	-20.7%
CC(C)NS(=O)(=O)c1ccc(OCC(=O)N2CCN(c3ccccc3F)CC2)cc1	0.291%
CN(C)CCN(Cc1ccc(Cl)cc1)c1ccccn1	active: 59.1%
O=C(c1ccc(CS(=O)c2ccccc2Cl)o1)N1CCN(c2ccccc2F)CC1 (stereo unspecified)	8.66%
COc1ccccc1-c1c(C)nn2c(C(F)(F)F)cc(-c3ccccc3)nc12	-3.54%
O=C(O)CCS(=O)(=O)c1cccc2cccnc12	active: 31%
Fc1ccc(C2=NC(c3cccc(C(F)(F)F)c3)=Nc3ccccc3N2)cc1	-13.2%
CCC(=O)N1CCc2cc(S(=O)(=O)CCC(=O)N(C)c3ccc(OC)cc3)ccc21	5.44%
O=C(Nc1ccccc1C(=O)OCc1cc(=O)n2ccsc2n1)c1cccc(F)c1	-17.2%
Cc1cc(Nc2cccc(Cl)c2)nc2ccc(NC(=O)c3ccc(F)cc3Cl)cc12	-6.63%

Structure (SMILES)	inhibition
COC(=O)c1c(NC(=O)CCCOc2ccccc2)sc2c1CCC(C)C2 (stereo unspecified)	21%
Fc1cccc(CN2CCN(c3ncccn3)CC2)c1	active: 82.8%
Cc1cc(C)n2nc(C(=O)Nc3c(C)nn(Cc4ccc(F)cc4)c3C)cc2n1	active: 51.5%
CC(NCC(O)c1ccc([N+](=O)[O-])cc1)C12CC3CC(CC(C3)C1)C2 (stereo unspecified)	active: 38.2%
O=C(NCCc1ccccc1)c1cc(-c2ccccc2)nc2n[nH]c(-c3ccccc3)c12	-15.4%
O=C(NCc1ccc(F)cc1)c1cccc(N2CCCS2(=O)=O)c1	11.2%
Cc1ccc(-c2cc(C(=O)NCCc3ccccc3)c3ccccc3n2)cc1C	15.2%
Cc1ccccc1NC(=O)Cn1c(=O)n(Cc2ccco2)c(=O)c2cccnc21	-10.8%
CN(C)c1ccc(/C=C(\C#N)c2nc3ccccc3c(=O)[nH]2)cc1	-14.1%
CCc1ccc2c(c1)c(=O)c(C(=O)c1ccc(C)cc1)cn2CC(=O)Nc1ccc2c(c1)OCCO2	21.5%
Cc1c(CCC(=O)NCCc2ccccc2F)c(=O)oc2cc(O)ccc12	10.3%
CCOc1ccc(NC(=O)NCCCN2CCN(c3ccc(OC)cc3)CC2)cc1	18.1%
O=C(c1ccc(CSc2nc3ccncc3n2Cc2ccccc2F)cc1)N1CCCCC1	1.32%
CCOc1ccccc1Nc1sc(C(=O)c2ccc(Cl)cc2)c(N)c1C#N	8.8%
CCOc1ccccc1CNC(=O)CN(c1ccc(C)cc1)S(=O)(=O)N(C)C	-8.79%
COc1ccc(-c2nnc(SCC(=O)NCc3ccccc3)nc2-c2ccc(OC)c(OC)c2)cc1OC	-8.89%
CC(C)(C)c1ccc(S(=O)(=O)c2cnc(SCC(=O)Nc3ccc(F)c(Cl)c3)[nH]c2=O)cc1	19.1%
CCOc1ccc(NC(=O)Cc2ccc(NC(=O)N3CCCCc4ccccc43)cc2)cc1	10.8%
N#CCc1ccc(C(=O)c2ccccc2)s1	active: 40%
CCOC(=O)c1cc(-c2ccc(F)cc2)n(CC(=O)NCc2ccc(OC)cc2)c1C	-3.86%
CC(C)CCNC(=O)CN1C(=O)c2cccnc2Oc2ccccc21	2.79%
N#Cc1ccccc1S(=O)(=O)N1CCCC(c2nc3c(nnn3Cc3cccc(Cl)c3)c(=O)[nH]2)C1 (stereo unspecified)	6.84%
Cc1csc2nc(CCNS(=O)(=O)c3ccccc3)cn12	-5.1%
CN(C)c1ccc(C(CNC(=O)c2ccccc2F)N2CCc3ccccc32)cc1 (stereo unspecified)	13.4%

Structure (SMILES)	inhibition
CCCCNc1nc2c(S(=O)(=O)c3ccc(Cl)cc3)nnn2c2ccsc12	-17.5%
Cc1nn(-c2ccccc2)c2c1N(CCCC(=O)NCc1ccc(Cl)cc1)C(=O)CS2	-4.28%
O=C(NCc1ccco1)c1c[nH]c2ccc(S(=O)(=O)Nc3ccc(F)cc3F)cc2c1=O	-2.52%
CN1CCN(C(=O)c2cnn(-c3cccc(Cl)c3)c2C2CCN(C(=O)OC(C)(C)C)CC2)CC1	7.12%
CCS(=O)(=O)c1nc2ccccc2n1CC(=O)Nc1ccccc1C(=O)OC	3.9%
Oc1c(C(c2ccc(Br)cc2)N2CCOCC2)sc2nc(-c3ccco3)nn12 (stereo unspecified)	9.3%
CCc1ccc(C(=O)c2c(N)c(-c3nc(-c4ccc5c(c4)OCO5)cs3)c3ccccn23)cc1	5.08%
COc1ccc2nc3sc(C(=O)N4CCN(c5ccccc5)CC4)cc3cc2c1	6.62%
Cc1c2cnn(-c3ccccc3)c(=O)c2c(C)n1CC(=O)N1CCN(c2ccc(F)cc2)CC1	-11.9%
CCN(CCCNC(=O)CSc1cc(=O)n(C)c2cc(Cl)ccc12)c1cccc(C)c1	0.78%
COc1cc(-c2noc(-c3ccc(N4CCOCC4)c([N+](=O)[O-])c3)n2)cc(OC)c1OC	18.2%
COc1cccc(-c2nc(CS(=O)(=O)CC(=O)Nc3cc(F)ccc3F)c(C)o2)c1	2.07%
Cc1ccc(NC(=O)CSc2nc3ccccc3c3nc(CCn4cncc4C)nn23)c(C)c1	9.58%
Cc1ccc(OCC(=O)N(Cc2ccco2)Cc2ccco2)cc1	-8.34%
CN(Cc1ccccc1)C(C(=O)NC1CCCCC1)c1ccc(Cl)cc1 (stereo unspecified)	27.1%
COc1cc(OC)c(NC(=O)CCn2cccn2)cc1Cl	6.49%
Fc1ccc(C(Nc2ccc(Cl)c(C(F)(F)F)c2)c2nnc(-c3ccccc3)o2)cc1 (stereo unspecified)	1.33%
Cc1ccc(N2C(=O)c3ccccc3NC2C(C)Cc2ccc3c(c2)OCO3)cc1 (stereo unspecified)	active: 33.7%
O=C(Cn1c(=O)n(-c2ccc(Cl)cc2)c(=O)c2sc3ccccc3c21)NC1CCCCC1	2.66%
COc1ccc(-c2cc(C(F)(F)F)nc(NCc3ccccc3)n2)cc1	-1.61%
COC(=O)c1c(C)[nH]c(C(=O)C(C)Sc2nnc(-c3cc(OC)c(OC)c(OC)c3)o2)c1C (stereo unspecified)	active: 32.1%
COc1cc(/C=C(\C#N)c2nc3ccc(C)cc3[nH]2)ccc1OC(C)C	-12.4%
COc1ccc2cc3cc(C(=O)NCCc4ccccc4)sc3nc2c1Cl	11%
CCc1ccc(S(=O)(=O)c2c[nH]c3cc(OC)c(OC)cc3c2=O)cc1	6.04%
